# Reference: patent US20070036750A1 (SCHERING, published 2007)
# Columns and labels:
# [1] = biological target: CCR2 receptor of THP-1 human monocytic cells (human, UniProt P41597 1-374); test: cell-based or functional assay
# [2] = biological target: T1, mouse CCR2 (full-length, Genbank Accession No. NM-009915) on membranes of Ba/F3-mCCR2 cells (mouse, UniProt P51683 1-373); test: competition with 30 pM radioiodinated human MCP1, SPA, Ba/F3-mCCR2 cell membranes
# T1 construct: whole, on cells
# T1 sequence (P51683 whole entry): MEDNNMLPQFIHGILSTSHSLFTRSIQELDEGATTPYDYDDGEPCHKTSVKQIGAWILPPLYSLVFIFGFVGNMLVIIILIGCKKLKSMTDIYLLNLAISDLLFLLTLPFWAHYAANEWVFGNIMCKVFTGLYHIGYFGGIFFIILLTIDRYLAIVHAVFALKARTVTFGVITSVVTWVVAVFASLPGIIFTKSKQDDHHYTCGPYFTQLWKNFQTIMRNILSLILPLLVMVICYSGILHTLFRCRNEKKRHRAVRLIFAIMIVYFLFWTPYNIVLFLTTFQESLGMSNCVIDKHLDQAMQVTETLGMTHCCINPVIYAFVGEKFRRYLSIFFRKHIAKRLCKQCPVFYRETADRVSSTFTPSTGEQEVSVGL
# Chain of UniProt P41597 (P41597 whole entry): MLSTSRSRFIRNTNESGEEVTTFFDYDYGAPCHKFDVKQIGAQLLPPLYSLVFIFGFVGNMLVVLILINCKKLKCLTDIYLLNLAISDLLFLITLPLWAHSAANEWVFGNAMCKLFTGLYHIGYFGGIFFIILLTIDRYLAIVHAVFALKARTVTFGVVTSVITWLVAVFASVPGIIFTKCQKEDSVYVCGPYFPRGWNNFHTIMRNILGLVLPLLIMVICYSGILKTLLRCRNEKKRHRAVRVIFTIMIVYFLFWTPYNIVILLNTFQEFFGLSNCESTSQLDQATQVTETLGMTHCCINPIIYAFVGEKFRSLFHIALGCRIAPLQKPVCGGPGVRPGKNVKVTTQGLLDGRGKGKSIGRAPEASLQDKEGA
binder,measurement,setting,value
"hMCP1-mIg (NH2-human MCP1-Mouse Ig Heavy chain γ1 (hinge-CH2-CH3)-COOH) (Fc fusion, also called hMCP1-mlg; human MCP1-mIg) not shown","EC50, THP-1 cell migration (chemotaxis)",[1],~0.5 nM
same,IC50,[2],0.35 nM
same,Ki,[2],0.138 nM
